Test results as given in a collection of fitness landscapes (doi:10.1016/j.celrep.2020.107928).
In all, about 81,000 sequences were measured (“one-hybrid fitness for binding parS DNA”: median about -0.17, highest 2% from about 0.51 on). This is one part of the list.

B1: Caulobacter ParB omega fusion; a variant is named by its letters at X, in order, B8GW30 (parent)
chain: MESVVVGEPGMSEGRRGLGRGLSALLGEVDAAPAQAPGEQLGGSREAPIEILQRNPDQPRRTFREEDLEDLSNSIREKGVLQPILVRPSPDTAGEYQIVAGERAWRAAQRAGLKTVPIMVRELDDLAVLEIGIIENVQRADLNVLEEALSYKVLMEKFERTQENIAQTIGKSXSHVANXMRLLXLPDEVQSYLVSGELTAXHARAIAAAADPVALAKQIIEGGLSVRETEALARKAPNLSAGKSKGGRPPRVKDTDTQALESDLSSVLGLDVSIDHRGSTGTLTITYATLEQLDDLCNRLTRGI

Variants of: B1
Test: one-hybrid fitness for binding parS DNA (scaled: cognate 1, non-cognate 0); higher = stronger binding
Settings: with parS DNA site
Procedure, shortened: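 On M9-minus-histidine containing 0.1 mM IPTG and 5 mM 3-AT, E. coli USO cells with a HIS3 reporter, site 19 bp from the promoter, grew 48 hours at 37°C to select Caulobacter ParB libraries randomised at four specificity codons. Plasmids from before and after were Illumina-sequenced, with three replicate libraries pooled and variants under 10 reads left out. Fitness is the log change in variant-to-wild-type read ratio, rescaled against cognate and non-cognate.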

one-hybrid fitness for binding parS DNA, 0.225:
RGYA

one-hybrid fitness for binding parS DNA, 0.58:
RKWA

one-hybrid fitness for binding parS DNA, ≤ 0.2:
SSFC
NHSD
RPRG
GMSF
QKEV
QMLC
MCPM
GGRM
FQHC
IKLS
QGWW
EGNC
SLMC
DKRT
MLER
YNQM
YQPL
CDDS
PQNF
NCFP
KELD
RNNR
TNTF
CIIC
RFFM
KCND
DPGM
CTQV
GVIV
DMDL
ESPG
PFEG
RDIS
ICKC
EEVS
IARG
ACSM
VQLT
DPHK
PRCI
QCGW
PPCR
NAVR
DPEK
CLER
TADT
FRSL
QYGT
IPTW
NIER
QTFM
SADT
TARH
QQIY
FKPG
LSMA
RDDL
SDFR
SPKR
NTHT
VSKN
HYPA
TNTI
PKIT
KKMT
AGLC
CFTT
MSSD
QSMK
KTRS
VSWG
GTVG
QADY
VKAQ
TSPK
CTMS
QTWW
LASA
TTRI
RDDD
QMTF
ASLI
TCVC
MSCC
ETNM
TWNF
AMTP
HDPV
SQQL
QINS
ALKK
KART
VYGR
ENTT
VHWS
CNMC
RNAK
RANQ
AVAI
QMRT
SHPL
QKHL
PTAL
RNLK
SQAT
VSRL
FTRA
QQSR
FSRE
DLTA
PYHG
YYKN
SWAM
EAYQ
SYNM
AMVN
SEAL
DSAG
QSAG
VFTT
WVSS
YEVT
FPQR
QMDC
TRTN
DTEV
KLWA
GHWG
SPSE
ANPY
HTCG
VRNY
ASTT
LNGL
LQYD
HHTV
QTCQ
ATLQ
MNGG
MLIC
FEYF
GFHI
AHRP
TKDL
RICL
HVHD

one-hybrid fitness for binding parS DNA, 1.04:
RIAS

one-hybrid fitness for binding parS DNA, 0.959:
RCDG

one-hybrid fitness for binding parS DNA, 0.372:
RCIN

one-hybrid fitness for binding parS DNA, 0.293:
RCRH

one-hybrid fitness for binding parS DNA, 0.893:
RTEG
